# Source: PubChem BioAssay (Tox21)
# The inconclusive results got no clear call from the source; some entries with a clear call stand among them for comparison. For some of these results: Potencies of inconclusive entries are doubtful fits and often do not repeat. Calls of active or inactive are those of the source. Unless noted, calls follow the shape of the dose curve; as a rule, active = well fitted curve in the direction sought with a large enough effect in the repeat runs; inconclusive = weak or mixed curves; inactive = no such curve, though single readings can be large; an effect the other way counts as inactive or inconclusive.
# How the values were obtained:
# [1] = A CellTox Green Cytotoxicity Assay to monitor cytotoxicity in HepG2 cells - 8 hour (AID 1224890); also: % is scaled to controls: 0 for no effect and ±100 for the full control effect; nearly all actives have a fitted effect of over 45% in size
# Procedure, shortened: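 Fluorescent DNA-binding dye, 600 HepG2 cells/well, 5 h preincubation then compound in DMSO; same plates read at 0–40 h, 37 C.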
# [2] = qHTS RealTime-Glo MT Cell Viability Assay in HEK293 cells - 0 hour (AID 1224880); also: nearly all actives have a fitted effect of over 45% in size; also: potency is read from the fitted curve at half-maximal effect; as to activity change, negative = cytotoxicity: top concentration of the series differs between compounds; % is scaled to controls: 0 for no effect and ±100 for the full control effect
# Procedure, shortened: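 Measured as luminescence from the same continuously cultured HEK293 wells at successive time points (0, 8, 16, 24, 32, 40 h) after compound addition. Reagent present from seeding; dosing at 5 h; incubation 37 C.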
# [3] = molecular target: Nuclear receptor subfamily 1 group I member 3 (Homo sapiens) (UniProt Q14994); assay: qHTS assay to identify small molecule antagonists of the constitutive androstane receptor (CAR) signaling pathway (AID 1224838); also: nearly all actives have a fitted effect of over 40% in size; also: potency is read from the fitted curve at half-maximal effect; as to activity, negative = inhibition: % is scaled to controls: 0 for no effect and ±100 for the full control effect
# Procedure, shortened: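 CITCO-stimulated (50 nM final) HepG2 cells stably transfected with hCAR and CYP2B6-2.2kb luciferase were exposed to compounds at 15 concentrations for 24 h at 37 C/5% CO2. A luciferase reagent was added and luminescence recorded after 30 min.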
# [4] = qHTS assay for small molecule disruptors of the mitochondrial membrane potential - cell viability (AID 720634; calls by dose curve; also: nearly all actives have a fitted effect of over 20% in size; also: potency is read from the fitted curve at half-maximal effect)
# Procedure, shortened: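 Same-well counter-screen: following the MMP dye addition, CellTiter-Glo was added to 1 hr compound-treated HepG2 cells and luminescence read after 30 min at room temperature.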
# [5] = qHTS assay to identify small molecule agonists of the estrogen related receptor (ERR) signaling pathway from Tox21 library (AID 1224849; calls by dose curve; also: % is scaled to controls: 0 for no effect and ±100 for the full control effect; nearly all actives have a fitted effect of over 15% in size); details: ERR reporter cell line, ONE-Glo luciferase, 18 h; at 92.4 µM (top of the series) unless noted
# Procedure, shortened: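 Reporter cells (ERR, NTP source) treated with Tox21 10K compounds 18 h, 37 C. Readout: ONE-Glo luminescence, 30 min RT.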
# [6] = qHTS assay to identify small molecule agonists of the vitamin D receptor (VDR) signaling pathway - cell viability counter screen (AID 743224); also: nearly all actives have a fitted effect of over 50% in size; also: potency is read from the fitted curve at half-maximal effect; as to activity change, negative = cytotoxicity: % is scaled to controls: 0 for no effect and ±100 for the full control effect
# Procedure, shortened: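 In parallel with the bla FRET readout, cytotoxicity toward VDR-bla cells after 16 h compound exposure was assessed by CellTiter-Glo, with luminescence recorded after a 30 min room-temperature incubation.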
# [7] = qHTS assay to identify small molecule HDAC inhibitors (AID 1259364);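 also: wild-type HCT-116 cells with endogenous class I/II HDAC activity; top concentration of the series differs between compounds; % is scaled to controls: 0 for no effect and ±100 for the full control effect; nearly all actives have a fitted effect of over 45% in size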
# Procedure, shortened: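 After a 2 hr compound incubation (37C, 5% CO2), HCT-116 cells seeded at 1,500/well the day before received HDAC-Glo reagent; signal read as luminescence after 30 min at room temperature.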
# [8] = molecular target: Acetylcholinesterase (Homo sapiens) (UniProt P22303); assay: Acetylcholinesterase (AChE) small molecule antagonists: enzyme-based qHTS assay (AID 1347397; calls by dose curve; also: nearly all actives have a fitted effect of over 55% in size; also: potency is read from the fitted curve at half-maximal effect); details: Potency: AChE enzyme activity inhibition; outcome: AChE enzyme activity inhibition
# Procedure, shortened: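 Colorimetric DTNB read-out of thiocholine released from acetylthiocholine by recombinant human AChE (50 mU/mL as dispensed). Compounds were preincubated 30 min at RT before substrate/DTNB addition, with a 10 min RT reaction.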
# [9] = qHTS assay to identify small molecule antagonists of the TGF-beta/Smad signaling pathway (AID 1346924; active = well fitted inhibition curve with a large enough effect in the signal ratio in the repeat runs, not every such curve was filed as active; inconclusive = weak or mixed curves; the % refers to the signal ratio); details: SBE-bla HEK293T, TGF-beta/Smad reporter, beta-lactamase ratio; activity, negative = inhibition: at 76.8 µM (top of the series) unless noted
# Procedure, shortened: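 Read-out was FRET-substrate fluorescence (405 nm excitation; 460 and 530 nm emission) after 2 h at room temperature. Before that, cells carrying a Smad-binding-element beta-lactamase reporter in HEK 293T had been stimulated 5 h at 37 C with TGF-beta1 (0.25 ng/mL addition solution) in the presence of test compound.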
# [10] = qHTS assay to identify small molecule agonists or antagonists of the thyroid stimulating hormone receptor (TSHR) signaling pathway - wild type cell line counter screen (AID 1259384; calls by dose curve; also: potency is read from the fitted curve at half-maximal effect); details: HEK293 wild type, cAMP HTRF counter-screen
# Procedure, shortened: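 Wild-type Hek293 cells, 800/well, 18 h at 37C, then compound with Ro20-1724 for 30 min RT. cAMP by HTRF (cAMP-d2/anti-cAMP cryptate), 1 h RT, fluorescence read. 15 concentrations, triplicates.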
# [11] = qHTS assay for small molecule agonists of the p53 signaling pathway - cell viability (AID 651633; calls by dose curve;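 also: p53RE-bla HCT reporter cells with a stable beta-lactamase p53 reporter; % is scaled to controls: 0 for no effect and ±100 for the full control effect; nearly all actives have a fitted effect of over 30% in size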)
# Procedure, shortened: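 p53RE-bla cells were treated with compound for 16 hours at 37 C. Cytotoxicity was then measured as CellTiter-Glo luminescence after 30 min at room temperature.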
# [12] = qHTS assay to identify small molecule agonists of the estrogen related receptor signaling pathway with the pleiotropic PPARgamma coactivator (PGC) from Tox21 10K library (AID 1224842); also: potency is read from the fitted curve at half-maximal effect; nearly all actives have a fitted effect of over 15% in size
# Procedure, shortened: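 PGC/ERR reporter cell line, 2,000 cells per well, incubated 6 h at 37 C before 23 nL compound in DMSO was added. After 18 h at 37 C, One-Glo luminescence read following 30 min at room temperature.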
# [13] = qHTS assay to identify small molecule antagonists of the estrogen related receptor signaling pathway with the pleiotropic PPARgamma coactivator (PGC) from Tox21 10K library - cell viability counter screen (AID 1224840; active = well fitted cell-killing curve with a large enough effect in the repeat runs, not every such curve was filed as active; inconclusive = weak or mixed curves, or effect the other way; inactive = no such curve, though single readings can be large or run the other way; also: % is scaled to controls: 0 for no effect and ±100 for the full control effect; nearly all actives have a fitted effect of over 40% in size)
# Procedure, shortened: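 Viability counter screen, PGC/ERR cells: 17.5 h compound exposure at 37 C, CellTiter-Fluor fluorescence endpoint.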
# [14] = qHTS RealTime-Glo MT Cell Viability Assay in HepG2 cells - 32 hour (AID 1224877); also: % is scaled to controls: 0 for no effect and ±100 for the full control effect; nearly all actives have a fitted effect of over 55% in size
# Procedure, shortened: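 Cells + NanoLuc/prosubstrate dispensed (600 cells/well) → 5 h at 37 C/5% CO2 → compounds in DMSO transferred → 40 h incubation at 37 C, luminescence read at 0, 8, 16, 24, 32, 40 h.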
# [15] = qHTS assay to identify small molecule agonists of the TGF-beta/Smad signaling pathway - cell viability counter screen (AID 1346829); also: nearly all actives have a fitted effect of over 45% in size; also: potency is read from the fitted curve at half-maximal effect; as to activity change, negative = cytotoxicity: top concentration of the series differs between compounds; % is scaled to controls: 0 for no effect and ±100 for the full control effect
# Procedure, shortened: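 After overnight seating at 37 C and 5% CO2, reporter cells got compounds for 5 hr and FRET substrate for 2 hr; cell viability then came from CellTiter-Glo luminescence.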
# [16] = Caspase-3/7 induction in CHO-K1 cells by small molecules, qHTS assay (AID 1346980); also: nearly all actives have a fitted effect of over 15% in size; also: potency is read from the fitted curve at half-maximal effect
# Procedure, shortened: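 Wild-type CHO-K1 cells exposed to compounds for 17hr at 37 C, 5% CO2. Caspase-3/7 activity then measured by Caspase-Glo 3/7 luminescence after 30min at room temperature.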
# [17] = qHTS assay to identify small molecule antagonists of the constitutive androstane receptor (CAR) signaling pathway - cell viability counter screen (AID 1224837)
# Procedure, shortened: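 In quantitative HTS format, compounds at 15 concentrations were applied to HepG2 cells double-transfected with hCAR and CYP2B6-2.2kb under 50 nM CITCO stimulation; live-cell protease activity was read after 23 hr via CellTiter-Fluor.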
# [18] = molecular target: Estrogen receptor (Homo sapiens) (UniProt P03372); assay: qHTS assay to identify small molecule antagonists of the estrogen receptor alpha (ER-alpha) signaling pathway using the BG1 cell line in the presence of 0.1 nM 17-beta-estradiol (AID 1259244); also: % is scaled to controls: 0 for no effect and ±100 for the full control effect; nearly all actives have a fitted effect of over 50% in size
# Procedure, shortened: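 Seeding of stripped-serum-adapted VM7Luc4E2 cells, 24 h attachment, compound transfer, then 0.1 nM final 17beta-estradiol; after 22 h incubation, ONE-Glo reagent and luminescence reading.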
# [19] = qHTS assay to identify small molecule that activate the aryl hydrocarbon receptor (AhR) signaling pathway - cell viability counter screen (AID 743086); also: nearly all actives have a fitted effect of over 45% in size; also: potency is read from the fitted curve at half-maximal effect
# Procedure, shortened: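 HepG2-AhR-luc (HG2L7.5c1) cells, 4000/well, treated 24 h at 37 C with compound; viability measured as CellTiter-Fluor fluorescence after 30 min in the same wells as the luciferase read.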
# Tags tell the direction and shape of the fitted curve.
# Sequence of UniProt P22303 (P22303 whole entry, looked up): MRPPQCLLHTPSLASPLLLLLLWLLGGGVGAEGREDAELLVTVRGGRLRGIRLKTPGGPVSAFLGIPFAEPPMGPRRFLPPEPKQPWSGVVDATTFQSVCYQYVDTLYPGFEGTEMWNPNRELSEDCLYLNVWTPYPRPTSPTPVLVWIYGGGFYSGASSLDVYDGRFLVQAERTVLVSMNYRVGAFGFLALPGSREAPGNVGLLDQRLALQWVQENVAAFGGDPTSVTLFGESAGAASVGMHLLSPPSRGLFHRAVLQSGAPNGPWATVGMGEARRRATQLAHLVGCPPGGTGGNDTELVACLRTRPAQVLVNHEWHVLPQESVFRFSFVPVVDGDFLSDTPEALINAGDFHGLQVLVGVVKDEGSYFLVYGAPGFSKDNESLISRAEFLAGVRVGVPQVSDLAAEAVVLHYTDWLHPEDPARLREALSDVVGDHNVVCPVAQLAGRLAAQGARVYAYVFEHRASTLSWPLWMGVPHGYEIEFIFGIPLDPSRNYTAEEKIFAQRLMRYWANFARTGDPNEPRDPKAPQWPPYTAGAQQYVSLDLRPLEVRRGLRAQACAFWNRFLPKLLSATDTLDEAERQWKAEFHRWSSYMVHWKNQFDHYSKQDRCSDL
# Sequence of UniProt P03372 (P03372 whole entry, looked up): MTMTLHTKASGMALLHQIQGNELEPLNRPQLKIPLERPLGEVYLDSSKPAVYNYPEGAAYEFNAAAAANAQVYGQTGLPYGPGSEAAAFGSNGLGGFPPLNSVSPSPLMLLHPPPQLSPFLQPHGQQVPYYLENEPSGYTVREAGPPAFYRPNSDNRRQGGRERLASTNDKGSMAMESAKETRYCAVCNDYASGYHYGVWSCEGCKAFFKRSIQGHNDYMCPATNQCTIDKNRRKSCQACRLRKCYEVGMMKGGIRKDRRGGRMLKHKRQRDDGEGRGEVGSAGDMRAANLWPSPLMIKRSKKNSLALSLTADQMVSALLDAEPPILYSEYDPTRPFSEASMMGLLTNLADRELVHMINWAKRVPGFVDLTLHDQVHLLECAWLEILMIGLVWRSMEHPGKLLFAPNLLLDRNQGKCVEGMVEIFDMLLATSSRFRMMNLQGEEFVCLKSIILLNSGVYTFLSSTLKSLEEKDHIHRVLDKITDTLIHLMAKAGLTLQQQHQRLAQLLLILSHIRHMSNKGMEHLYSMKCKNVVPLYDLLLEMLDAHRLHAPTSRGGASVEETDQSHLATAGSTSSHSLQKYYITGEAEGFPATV
# Sequence of UniProt Q14994 (Q14994 whole entry, looked up): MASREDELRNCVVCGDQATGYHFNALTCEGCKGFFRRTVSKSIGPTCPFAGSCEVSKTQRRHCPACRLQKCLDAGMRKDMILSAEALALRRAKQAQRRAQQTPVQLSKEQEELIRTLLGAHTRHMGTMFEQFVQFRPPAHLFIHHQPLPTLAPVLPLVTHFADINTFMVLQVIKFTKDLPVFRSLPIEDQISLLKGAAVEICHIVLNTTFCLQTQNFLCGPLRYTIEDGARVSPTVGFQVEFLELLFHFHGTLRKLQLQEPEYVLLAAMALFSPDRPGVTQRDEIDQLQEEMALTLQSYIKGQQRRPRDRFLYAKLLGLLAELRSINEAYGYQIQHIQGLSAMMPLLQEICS
smiles,measurement,setting,value
ClC(Cl)(Cl)c1ccccc1,Potency,[1],inactive
CC(Cl)CN(C)C (centres undefined),Potency,[2],"inconclusive: 54.9 µM [rising, single point]"
CN1CCC(N(Cc2ccccc2)c2ccccc2)CC1,Potency,[3],inactive
CC(C)COC(=O)c1ccccc1C(=O)OCC(C)C,Potency,[4],"inconclusive: 48.6 µM [cytotoxic, partial curve]"
NNCCO,"activity change, positive = activation",[5],inconclusive: 13.7%
CCCCc1ccc(O)cc1,Potency,[1],inactive
Brc1ccc(Br)cc1,Potency,[6],"inconclusive: 61.7 µM [cytotoxic, partial curve, poor fit]"
CCC(=O)C(CCN(C)C)(c1ccccc1)c1ccccc1,Potency,[3],"inconclusive: 3.35 µM [inhibitor, single point]"
OCC(O)CCl (centres undefined),Potency,[7],inactive
N[C@@H](Cc1ccc(Oc2cc(I)c(O)c(I)c2)c(I)c1)C(=O)O,Potency,[8],"inconclusive: 43.6 µM [falling, single point]"
O=C1CN2CCOC2(c2ccccc2Cl)c2cc(Cl)ccc2N1 (centres undefined),Potency,[6],inactive
O=C(O)C(F)(F)C(F)(F)C(F)(F)C(F)(F)C(F)(F)C(F)(F)F,Potency,[6],inactive
Cc1ccc(S(=O)(=O)N[C@@H](CCCCN)C(=O)CCl)cc1,"activity, negative = inhibition",[9],inconclusive: -5.96% [at 35.3 µM]
same,Potency,[8],"inconclusive: 34.7 µM [falling, partial curve, poor fit]"
CC(Cc1ccc(O)cc1)NCC(O)c1cc(O)cc(O)c1 (centres undefined),Potency,[10],active: 0.668 µM
same,"activity, negative = inhibition",[9],inconclusive: -0.997% [at 35.3 µM]
CNC(=O)O/N=C/C(C)(C)S(C)(=O)=O,Potency,[11],inactive
Cc1ncc2n1-c1ccc(Cl)cc1C(c1ccccc1F)=NC2,Potency,[11],inactive
same,Potency,[12],"inconclusive: 37.6 µM [activator, single point]"
same,Potency,[1],inactive
CCN(CCO)CCn1c(Cc2ccccc2)nc2c1c(=O)n(C)c(=O)n2C,Potency,[13],inactive
CCC(C)Cl (centres undefined),Potency,[13],inactive
CC(C#N)CCC#N (centres undefined),Potency,[14],inactive
CC(C)NCC(O)c1ccc([N+](=O)[O-])cc1 (centres undefined),Potency,[6],"inconclusive: 33.5 µM [rising, partial curve, poor fit]"
Cc1cccc([N+](=O)[O-])c1,Potency,[15],inactive
COP(=O)(NC(C)=O)SC (centres undefined),Potency,[2],inactive
same,Potency,[16],"inconclusive: 27.3 µM [activator, single point]"
Brc1c(Br)c(Br)c(Oc2c(Br)c(Br)c(Br)c(Br)c2Br)c(Br)c1Br,"activity change, negative = cytotoxicity",[17],inactive: 5.53% [at 19 µM]
same,Potency,[15],"inconclusive: 0.293 µM [cytotoxic, single point]"
N#Cc1ccccc1Cl,Potency,[2],inactive
CCCCCCCCCCBr,Potency,[18],inactive
O=[N+]([O-])c1ccc(Cl)cc1,Potency,[16],"inconclusive: 27.1 µM [activator, single point]"
O=C(Nc1ccc(F)cc1F)c1cccnc1Oc1cccc(C(F)(F)F)c1,Potency,[4],inactive
same,Potency,[12],"inconclusive: 18.9 µM [activator, partial curve]"
Brc1c(Br)c(Br)c(Br)c(Br)c1Br,"activity change, negative = inhibition",[18],inactive: 3.5% [at 8.39 µM]
CS(=O)(=O)Cl,Potency,[16],inactive
CCC1(c2ccccc2)CCC(=O)NC1=O (centres undefined),Potency,[17],inactive
O=C(O)C(F)(F)C(F)(F)C(F)(F)C(F)(F)C(F)(F)F,Potency,[19],"inconclusive: 15.4 µM [rising, partial curve, poor fit]"
same,cAMP activity change,"[10]; at 92.4 µM (top of the series), stronger effect = higher value",inconclusive: 0.385%
Oc1cccc(-c2ccccc2)c1,"activity change, positive = activation",[5],inconclusive: 10.4%
CC(N)=S,Potency,[2],inactive
NC(=O)CCl,Potency,[18],inactive
C[N+](C)(C)Cc1ccccc1,Potency,[15],inactive
CCCCSP(=O)(SCCCC)SCCCC,Potency,[8],"inconclusive: 35.6 µM [falling, partial curve]"
[Cl-].[Cl-].[Cl-].[Fe+3],Potency,[19],inactive
same,"activity, negative = inhibition",[9],inconclusive: 3.16%
COc1ccc(OC)c(C=O)c1,Potency,[2],"inconclusive: 61.6 µM [falling, single point]"
same,Potency,[15],"inconclusive: 54.9 µM [rising, single point]"
same,Potency,[8],inactive
